Here are results for 44 molecules from the supplement of paper PMC10600219.

Counter-ions that a name gives are not always drawn. Over roughly 2,800 compounds, “cell viability relative to vehicle” has its median near 1.1; the lowest 2% begin near 0.19. Some of the results follow.

The subject of this experiment is NCI-H2228 parental. Nature of the experiment: cell viability relative to vehicle (fraction of vehicle); NCI-H2228 is an ALK-positive lung cancer line and DTP means drug-tolerant persister; higher = less growth inhibition. Conditions: 100 nM; treatment time 6 days. In outline: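 Values give cell viability as a fraction of vehicle-treated cells. Parental and drug-tolerant persister NCI-H2228 cells (persisters made with 1000 nM of a targeted drug for 13 days) were exposed in 384-well plates to the 3114-agent TargetMol anti-cancer compound library at 100 nM, with DMSO as vehicle. ATP was then read after 6 days by the CellTiter-Glo 3D Cell Viability Assay.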
Regarding `Cc1cc(SCc2sc(-c3ccc(C(F)(F)F)c(F)c3)nc2C)ccc1OCC(=O)O`, the cell viability is 0.971.

In the case of `O=C(O)C1C2CCC(O2)C1C(=O)O` (centres undefined) [Sodium Demethylcantharidate], the cell viability turned out to be 0.852.

Turning to `CC(C)(C)[C@]1(O)CC2OC(=O)CC23C(=O)OC2OC(=O)[C@H](O)C231` (some centres undefined) [Bilobalide], the cell viability amounted to 0.975.

For `Clc1ccccc1C(c1ccccc1)(c1ccccc1)n1cccn1`, the cell viability was found to be 0.96.

Turning to `O=C(N[C@H]1CN2CCC1CC2)c1cc2cccc(Cl)c2s1` [EVP-6124 hydrochloride], the cell viability worked out at 1.07.

For the molecule `CC(=O)O[C@H]1[C@H]2O[C@]23[C@@H]2CC[C@@H]4C[C@@H](O)CC[C@]4(C)[C@H]2CC[C@]3(C)[C@H]1c1ccc(=O)oc1` [Cinobufagin], the cell viability turned out to be 0.439.

As for `NCCc1c[nH]c2ccccc12` [Tryptamine], the cell viability was found to be 1.01.

`Clc1ccc(C(OCCN2CCCCC2)c2ccccc2)cc1` (centres undefined) [Cloperastine hydrochloride]: the cell viability amounted to 1.15.

Turning to `CCCC(C)(C)c1ccc2c(c1)OC(C)(C)[C@@H]1CC=C(C)C[C@@H]21`, the cell viability worked out at 0.905.

As to `CCn1cc(C(=O)O)c(=O)c2cc3c(cc21)OCO3` [Oxolinic acid], the cell viability came out at 0.986.

Consider `C[C@]12CC[C@H](O)C[C@@H]1CC[C@@H]1[C@@H]2CC[C@]2(C)C(=O)CC[C@@H]12` [Epiandrosterone], for which the cell viability is 0.817.

For the molecule `C[N+]1(C)[C@@H]2C[C@@H](OC(=O)[C@H](CO)c3ccccc3)C[C@H]1[C@@H]1O[C@@H]12` [Methscopolamine], the cell viability was 0.915.

As to `CN(C)C(=O)Oc1cc(OC(=O)N(C)C)cc(C(O)CNC(C)(C)C)c1` (centres undefined) [Bambuterol hydrochloride], the cell viability stood at 1.31.

For the molecule `NCCc1ccc(O)cc1` [Tyramine], the cell viability was determined as 1.09.

As for `CCN(C)C(=O)Oc1cccc([C@H](C)N(C)C)c1` [Rivastigmine tartrate], the cell viability is 1.11.

As to `CCN(C)C(=O)Oc1cccc([C@H](C)N(C)C)c1` [Rivastigmine], the cell viability was found to be 0.986.

For `CC1=C[C@]23C(=O)[C@@H](C=C(CO)[C@@H](O)[C@]2(O)[C@H]1O)[C@H]1[C@@H](C[C@H]3C)C1(C)C` [Ingenol], the cell viability was 1.08.

On to `CCC1(c2ccc(N)cc2)CCC(=O)NC1=O` (centres undefined) [Aminoglutethimide], for which the cell viability worked out at 0.974.

As to `O=C(/C=C/c1ccccc1)OC[C@H]1O[C@@H](O[C@@H]2OC=C[C@H]3[C@H](O)[C@@H]4O[C@]4(CO)[C@@H]23)[C@H](O)[C@@H](O)[C@@H]1O` [Picroside I], the cell viability was determined as 1.11.

For `C=C1CC[C@H]2[C@@H](/C=C(\C)C(=O)[C@@]3(O)C[C@H](C)[C@H](O)[C@@H]3[C@@H]1O)C2(C)C` [Lathyrol], the cell viability turned out to be 1.09.

`Cc1c(Cl)cccc1S(=O)(=O)Nc1nc(CC(=O)N2CCN(C)CC2)cs1`: the cell viability amounted to 0.909.

For the molecule `COc1ccc2c(c[n+](C)c3c4cc5c(cc4ccc23)OCO5)c1OC` [Chelerythrine], the cell viability is 0.999.

In the case of `COc1ccc2c(c[n+](C)c3c4cc5c(cc4ccc23)OCO5)c1OC` [Chelerythrine chloride], the cell viability came out at 1.13.

On to `O=C1CCC[C@@H]2[C@H]3CCCN4CCC[C@H](CN12)[C@@H]34` [Sophoridine], for which the cell viability turned out to be 0.999.

For `O=c1[nH]c2ccccc2n1C1CCN(Cc2ccc(-c3[nH]c4cc5ncnc5cc4nc3-c3ccccc3)cc2)CC1` [AKT inhibitor VIII], the cell viability is 0.979.

As for `C[C@H](Nc1ncnc2[nH]cnc12)c1nc2ccc(F)cc2c(=O)n1-c1ccccc1` [Acalisib], the cell viability amounted to 1.02.

For `COc1cc(C2OCC3C(c4cc(OC)c(O[C@@H]5O[C@H](CO)[C@@H](O)[C@H](O)[C@H]5O)c(OC)c4)OCC23)cc(OC)c1O[C@H]1O[C@@H](CO)[C@H](O)[C@@H](O)[C@@H]1O` (some centres undefined) [Eleutheroside E], the cell viability came to 1.14.

Turning to `C[C@](O)(COc1ccc(C#N)cc1)C(=O)Nc1ccc(C#N)c(C(F)(F)F)c1` [Ostarine], the cell viability is 0.538.

In the case of `COc1ccc(CCN2CCC(Nc3nc4ccccc4n3Cc3ccc(F)cc3)CC2)cc1` [Astemizole], the cell viability is 1.13.

In the case of `CC(=O)O[C@H]1C[C@H](O[C@H]2[C@@H](O)C[C@H](O[C@H]3[C@@H](O)C[C@H](O[C@H]4CC[C@@]5(C)[C@H](CC[C@@H]6[C@@H]5C[C@@H](O)[C@]5(C)[C@@H](C7=CC(=O)OC7)CC[C@]65O)C4)O[C@@H]3C)O[C@@H]2C)O[C@H](C)[C@H]1O[C@@H]1O[C@H](CO)[C@@H](O)[C@H](O)[C@H]1O` [Lanatoside C], the cell viability amounted to 0.427.

As for `Cc1c([C@H](C)[C@@H]2NC[C@@H](C)C[C@H]2O)ccc2c1C[C@H]1[C@H]2CC=C2C[C@@H](O)CC[C@@]21C` [Veratramine], the cell viability is 1.12.

As to `CC(=O)Nc1ccc(OC[C@](C)(O)C(=O)Nc2ccc([N+](=O)[O-])c(C(F)(F)F)c2)cc1` [Andarine], the cell viability is 1.04.

For the molecule `CC(C)[C@H](N)C(=O)N1CCC[C@H]1B(O)O` [Talabostat mesylate], the cell viability turned out to be 0.987.

Take `C=C(C)[C@H]1Cc2c(ccc3c2O[C@@H]2COc4cc(OC)c(OC)cc4[C@@H]2C3=O)O1` [Rotenone]: the cell viability was found to be 0.5.

In the case of `COC(=O)C1=CCCN(C)C1` [Arecoline HBr], the cell viability came to 1.04.

Turning to `CNCC(=O)c1ccc(O)c(O)c1` [Adrenalone hydrochloride], the cell viability is 1.12.

Regarding `C=CCCCCCCCCC(=O)O[C@H]1CC[C@H]2[C@@H]3CCC4=CC(=O)C=C[C@]4(C)[C@H]3CC[C@]12C` [Parenabol], the cell viability amounted to 1.06.

On to `N#Cc1c(Oc2cccc(OS(=O)(=O)CCCC(F)(F)F)c2)cccc1C(F)(F)F`, for which the cell viability was determined as 1.01.

For `C[C@]12CC[C@H]3[C@@H](CC[C@@]45O[C@@H]4C(O)=C(C#N)C[C@]35C)[C@@H]1CC[C@@H]2O` [Trilostane], the cell viability was 1.17.

For the molecule `Oc1cc(O)cc(/C=C/c2ccc(O)cc2O)c1` [Oxyresveratrol], the cell viability came out at 0.982.

Consider `C=C1C[C@@H]2[C@H](CC[C@]3(C)C(=O)CC[C@@H]23)[C@@]2(C)C=CC(=O)C=C12` [Exemestane], for which the cell viability was determined as 1.12.

As for `C=C1C2CC3(C1O)C1CC4C5(C)CCC(O)C4(C1N(CC)C5)C3CC2=O` (centres undefined) [Napellonine], the cell viability is 0.91.

As to `COc1c(C)c(O)cc2[o+]c(-c3ccccc3)ccc12.[O-][Cl+3]([O-])([O-])[O-]` [Dracorhodin perochlorate], the cell viability came out at 1.11.

Consider `CCCCCc1cc(O)cc(O)c1` [Olivetol], for which the cell viability was 1.14.
